# Measurements taken from PubChem BioAssay AID1508642 (National Center for Advancing Translational Sciences (NCATS), 2021).
# The whole screen tested about 43,000 compounds, of which about 200 (0.47%) were called active. Not shown: some 12% with an inconclusive outcome. Calls come from the whole dose curve; as a rule, active = well fitted cell-killing curve with a large enough effect; inconclusive = small, poorly fitted or top-dose-only effect, or effect the other way; inactive = flat fitted curve, though single readings scatter. Some of the results follow.
# Assay: Cell viability qHTS assay in S16 Pmp22-F2sN cells; note: nearly all actives have a fitted effect of over 65% in size
# Details: S16 Pmp22-F2sN Schwann cells (luciferase reporters placed in the Pmp22 gene) viability, CellTiter-Glo, 24 h; series mostly up to 57.5 µM; activity change, negative = cytotoxicity: at the top concentration
# Method in brief: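 CellTiter-Glo counter-screen, qHTS, 1536-well. Cells: S16(c9) Pmp22-F2sN, 500-1,000/well in DMEM + 10% FBS. Cpd 23 nL pin transfer, 24 h, 37C/5% CO2. Read: luminescence, CCD imager.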
# % is set by controls: 0 for no effect and ±100 for the full control effect.
row,SMILES,"activity change, negative = cytotoxicity"
1,O=c1c2sc3ccccc3c2n(Cc2ccccc2F)c(=O)n1-c1ccccc1Cl,inactive: 14.4%
2,COc1cccc(CNC(=O)CSc2nc3ccccc3nc2Cc2ccccc2)c1,inactive: 11.7%
3,COc1ccccc1N1CCN(c2ccc(=O)n(CC(=O)O)n2)CC1,inactive: 9.45%
4,O=C(COc1ccc(Cl)cc1)Nc1ccc(O)c(-c2nc3ccccc3s2)c1,inactive: -6.99%
5,Cc1ccc(Cn2c(C(=O)O)c(CNCCc3cccs3)c3ccc(C)cc32)cc1,inactive: 28.7%
6,O=C(NC1CC(=O)N(c2ccc(F)cc2)C1)c1ccc(S(=O)(=O)N2CCCC2)cc1 (stereo not drawn),inactive: 19.2%
7,CCN(C(=O)CSc1nc2ccccc2nc1Cc1cccc(OC)c1)c1cccc(C)c1,inactive: -2.53%
8,Cc1ccc(NC(=O)Nc2nc3c(s2)CCCCCC3)cc1C,inactive: 17.3%
9,Cc1cc(Br)ccc1NC(=O)COc1cc(=O)n(C)c2ccccc12,inactive: -1.97%
10,COc1ccccc1NC(=O)c1ccc2[nH]c(C)cc(=O)c2c1,inactive: -0.707%
11,COc1ccc(OCc2nc(-c3ccc(OC)c(OC)c3)no2)cc1,inactive: 23.2%
12,CC(=O)Nc1ccc(C)cc1-c1nc2ccccc2n(Cc2cccc(Br)c2)c1=O,inactive: -1.17%
13,CCCc1nc2nc(C)c(NS(=O)(=O)c3ccc(C)c(C)c3)c(=O)n2[nH]1,inactive: 5.04%
14,CCOC(=O)C1CCCN(C(=O)c2ccc(C)c(NC(=O)c3nsc4ccccc34)c2)C1 (stereo not drawn),inactive: -1.53%
15,COc1cccc(NC(=O)CSc2nnc3[nH]c(=O)cc(-c4ccccc4)n23)c1,inactive: -11.4%
16,CCc1ccc(NS(=O)(=O)c2cc(Br)cc3c2N(C(C)=O)CC3)cc1,inactive: 0.225%
17,COc1ccc(CCNc2oc(/C=C/c3ccc(OC)c(OC)c3)nc2C#N)cc1,inactive: 3.03%
18,CC(=O)Nc1c(C)nn(-c2ccccc2)c1N1CCC(C(=O)Nc2ccc(C)cc2Cl)CC1,inactive: 0.561%
19,COc1cccc(-n2ccnc2SCC(=O)Nc2nc3ccc(C)cc3s2)c1,inactive: 0.702%
20,CCC(=O)N1c2ccccc2CC1C(=O)NCCc1ccccc1OC (stereo not drawn),inactive: -14.8%
21,CCc1ccc(-n2nc(C)c3c(C(=O)Nc4ccc(Cl)cc4)cc(C)nc32)cc1,inactive: 0.0515%
22,Cc1ccc(C)c(-c2ccc(=O)n(C(C)C(=O)Nc3ccccc3C(F)(F)F)n2)c1 (stereo not drawn),inactive: -0.126%
23,CCCCNC(=O)CSc1nc(-c2ccc(OC)cc2)cc(C(F)(F)F)n1,inactive: 16.6%
24,CCCOc1ccccc1C(=O)N1CCCCC1CCN1CCCCC1 (stereo not drawn),inactive: 1.16%
25,Cc1ccc(OCC(=O)Nc2nnc(SCc3cc(=O)n4cc(C)ccc4n3)s2)cc1,inactive: 7.14%

row,SMILES,"activity change, negative = cytotoxicity"
1,Cc1noc(-c2ccc(N(C)Cc3ccccc3)c([N+](=O)[O-])c2)n1,inactive: -23.6%
2,COC(=O)c1ccccc1NC(=O)CCn1c(=O)c2cccn2c2cccnc21,inactive: 2.79%
3,COc1ccc(C(=O)Nc2cc(-c3nc4ncccc4o3)ccc2C)cc1Br,inactive: 12.8%
4,COc1ccc(OC)c(-n2nnc(-c3nc(-c4ccc5c(c4)OCO5)no3)c2C)c1,inactive: -3.64%
5,O=C(NC1CC(=O)N(c2cccc(F)c2)C1)c1ccc(S(=O)(=O)N2CCCCC2)cc1 (stereo not drawn),inactive: 6.57%
6,CCCN(CCC)C(=O)Cn1c(=O)n(-c2ccc(CC)cc2)c(=O)c2c3c(sc21)CCC3,inactive: 11.2%
7,CCOC(=O)C1CCN(C(=O)c2ccc3c(=O)n4nc(Nc5ccccc5)sc4nc3c2)CC1,inactive: 4.17%
8,COc1ccc(NC(=O)C2(S(=O)(=O)c3ccc(C)cc3)CC2)c(OC)c1,inactive: 1.56%
9,O=C(Nc1ccccc1F)C(c1ccccc1)N1Cc2ccccc2C1=O (stereo not drawn),inactive: -1.45%
10,O=C(CSc1nccn1Cc1ccc(F)cc1)NC1CCCC1,inactive: 6.75%
11,CCCOC(=O)c1ccc(NC(=O)C2CC(=O)N(c3ccc(C)cc3)C2)cc1 (stereo not drawn),inactive: 21.4%
12,Cc1ccc(CN(C(=O)COc2cccc(Cl)c2)c2ccccn2)o1,inactive: 5.12%
13,CCOc1ccc(NC(c2ccc(Cl)cc2)c2nnc(-c3cccc(F)c3)o2)cc1 (stereo not drawn),inactive: 13.7%
14,COc1cc(O)ccc1-c1nc2ccc(Br)cn2c1Nc1ccccc1C,inactive: 2.22%
15,CCOc1ccc(NC(=O)c2sc3nc4n(c(=O)c3c2C)CCCC4)cc1,inactive: -2.69%
16,Cc1cc(Cl)ccc1NC(=O)CS(=O)(=O)c1cccc2nsnc12,inactive: -1.88%
17,Cc1cccn2c(=O)c3cc(C(=O)NC(C)(C)C)n(C)c3nc12,inactive: 14.7%
18,CCOC(=O)C1CCN(c2nc3c(S(=O)(=O)c4ccc(CC)cc4)nnn3c3ccc(Cl)cc23)CC1,inactive: -3.52%
19,CC(=O)c1ccc(NC(=O)C2CCCN(S(=O)(=O)c3ccc(Br)s3)C2)cc1 (stereo not drawn),inactive: -0.559%
20,CCc1ccc(NCc2cc3ccc(OC)cc3n(CC(=O)Nc3ccccc3OC)c2=O)cc1,inactive: 11.1%
21,COC(=O)c1sc2cccc(F)c2c1S(=O)(=O)NC(C)c1ccccc1 (stereo not drawn),inactive: 0.201%
22,Cc1cccc(NC(=O)c2ccc(F)c(S(=O)(=O)NCc3ccc4c(c3)OCO4)c2)c1,inactive: -1.84%
23,Cc1ccn2c(Nc3ccc4c(c3)OCO4)c(-c3ccc(C)o3)nc2c1,inactive: -17.9%
24,Cc1cc(C)cc(NC(=O)CSc2oc(-c3cccs3)nc2S(=O)(=O)c2ccc(Br)cc2)c1,inactive: -14.4%
25,CCOc1ccc(N2CC(NC(=O)c3cc4ccccc4o3)CC2=O)cc1 (stereo not drawn),inactive: 6.9%

row,SMILES,"activity change, negative = cytotoxicity"
1,CCCOC(=O)c1c(NC(=O)c2cc3nc(-c4ccc(OC)cc4)cc(C(F)(F)F)n3n2)sc2c1CCCC2,inactive: 5.53%
2,COc1cccc(NC(=O)CSc2c(C)cnc3c2c(=O)n(C)c(=O)n3C)c1,inactive: 0.237%
3,COc1cc(Cl)c(C)cc1NC(=O)c1nn(-c2ccc(C)cc2)c(=O)n(C)c1=O,inactive: 0.705%
4,Cc1ccc(CSc2nc3ccncc3n2Cc2nc(-c3ccc(Cl)cc3)oc2C)cc1,inactive: -19.2%
5,COc1ccccc1N1CCN(C(=O)c2cnn(C(C)(C)C)c2C2CCN(C(=O)OC(C)(C)C)CC2)CC1,inactive: -5.26%
6,CCOC(=O)c1ccc(NC(=O)C(=O)NCCc2ccc(OC)cc2)cc1,inactive: -2.81%
7,COc1ccc2oc(=O)c(C(=O)N3CCN(c4cc(Cl)ccc4Cl)CC3)cc2c1,inactive: 3.34%
8,Cc1ccc(C)c(NC(=O)Cn2c(-c3nonc3N)nc3ccccc32)c1,inactive: 5%
9,Cc1ccc(-c2nc(CCNC(=O)C(=O)Nc3ccc(F)cc3F)cs2)cc1,inactive: 13.5%
10,Cc1ccc(C(=O)Nc2cc3cc(Cl)ccc3oc2=O)cc1,inactive: -6.18%
11,CC(C)C(=O)Nc1c(C(=O)N2CCN(c3ccccc3F)CC2)oc2ccccc12,inactive: 0.39%
12,Fc1ccc(C(c2nnc(-c3ccccc3)o2)N2CCN(c3ccccc3)CC2)c(Cl)c1 (stereo not drawn),inactive: 6.52%
13,Cc1ccc(-c2nc3sc(CCNC(=O)c4ccco4)c(C)n3n2)cc1,inactive: 0.743%
14,Cc1ccc2c(c1)N(CC(=O)NCCCN1CCCCC1)C(=O)c1cccnc1O2,inactive: 2.71%
15,COc1ccccc1CNC(=O)CCCN1C(=O)CCn2nc(-c3cn(C)c4ccccc34)cc21,inactive: -0.298%
16,COc1ccccc1NCc1nnc2n1CCCCC2,inactive: 0.729%
17,Cc1ccc(-c2nc(C(=O)Nc3cccc(C#N)c3)c3n2CCCCC3)cc1,inactive: -0.208%
18,Cc1cccc(C(=O)OCc2cc(=O)n3nc(C4CC4)sc3n2)c1,inactive: 25.9%
19,COc1ccc(-c2nc(SCC(=O)Nc3ccc4c(c3)OCO4)c(-c3ccc(F)cc3)[nH]2)cc1OC,inactive: -4.3%
20,CCOc1ccccc1NC(=O)CCc1nc(-c2cccc(C)c2)no1,inactive: 3.48%
21,O=C1c2ccccc2C(=O)C1(c1ccccc1)N1CCN(c2cccc(C(F)(F)F)c2)CC1,inactive: -0.349%
22,Cc1ccc(NC(=O)N2CCC(CN3CCCCCC3)CC2)c(Cl)c1,inactive: 24.9%
23,CC(C)c1ccc(N2C(=O)CSC23C(=O)N(Cc2ccccc2F)c2ccccc23)cc1 (stereo not drawn),inactive: -2.28%
24,Cc1nc(-c2ccc(S(=O)(=O)Nc3ccc(OC(F)(F)F)cc3)cc2)co1,inactive: -3.44%
25,CCCNC(=O)c1c(NC(=O)c2ccccc2F)sc2c1CCCCC2,inactive: 5.62%

row,SMILES,"activity change, negative = cytotoxicity"
1,CCC(=O)N1CCc2cc(S(=O)(=O)NCCC(=O)NCc3ccc(OC)cc3)ccc21,inactive: -7.25%
2,COc1cccc(-n2c(=O)c3sccc3n(Cc3cc(=O)n4cc(Cl)ccc4n3)c2=O)c1,inactive: 8.21%
3,Cc1nc2nncn2c(Nc2ccc(F)cc2)c1C,inactive: -11.2%
4,Cc1cc2nc(-c3cccc(NC(=O)COc4ccc(C(C)C)cc4)c3)oc2cc1C,inactive: 14%
5,Cc1ccc(N(C)S(=O)(=O)c2c(-c3ccccc3)csc2C(=O)O)cc1,inactive: 6.8%
6,COc1ccc(N2CCN(C(=O)c3c(C)oc4nc(C)nc(N5CCCC5)c34)CC2)cc1,inactive: 3.35%
7,Cc1ccccc1-c1nnc(SCC(=O)N2CCCc3ccccc32)o1,inactive: 1.36%
8,COc1ccc(-c2nc(C)c(CCNC(=O)c3cccs3)s2)cc1,inactive: 6.44%
9,CCOc1ccc(NC(=O)c2ccc3c(c2)c(C)c(C)n3Cc2ccc(F)cc2)cc1,inactive: -16.7%
10,Cc1ccc(NC(=O)Cn2ncc3c4ccccc4n(Cc4ccccc4)c3c2=O)cc1Cl,inactive: 22.4%
11,Cc1ccc(C)c2sc(N3CCN(C(=O)c4ccco4)CC3)nc12,inactive: 9.47%
12,Cc1cn2c(=O)c(S(=O)(=O)NC(C)c3ccccc3)c(C)nc2s1 (stereo not drawn),inactive: 11%
13,Cc1ccc(S(=O)(=O)c2nnn3c2nc(N2CCCCC2)c2sccc23)cc1,inactive: 9.05%
14,CCN(CC)S(=O)(=O)c1ccc(NC(=O)[C@H](CCSC)N2Cc3ccccc3C2=O)cc1,inactive: -9.42%
15,CCn1ccc2cc(S(=O)(=O)N3CCCN(C(=O)Nc4ccc(C)cc4)CC3)ccc21,inactive: -0.518%
16,NC(=O)Cn1c(=O)n(-c2ccc(F)c(Cl)c2)c(=O)c2sc3ccccc3c21,inactive: 5.77%
17,Cc1ccc(N2CCN(c3cc(C)nc4c(-c5ccc(Cl)cc5)c(C)nn34)CC2C)cc1 (stereo not drawn),inactive: 3.78%
18,CCc1nc(SCc2cc(=O)c3cc(F)ccc3[nH]2)n[nH]1,inactive: 18.4%
19,Cc1cc(C)cc(N(C)S(=O)(=O)c2nnc(NC(=O)COc3ccc(Cl)cc3)s2)c1,inactive: -0.64%
20,CC(=O)c1cccc(NC(=O)CN2C(=O)CN(C)C(=O)c3ccccc32)c1,inactive: -0.816%
21,CCOc1ccc(Cn2c(CNS(=O)(=O)c3cccs3)nc3cccnc32)cc1,inactive: 0.0162%
22,Cc1cccc(Cn2c(-c3cccs3)nc3ccccc32)c1,inactive: 2.15%
23,Cc1ccccc1NC(=O)CCc1c(C)nc2c(c1C)c(=O)n(C)c(=O)n2C,inactive: 6.63%
